{"source": "paper PMC9911399", "about": "“Two distinct binding modes provide the RNA-binding protein RbFox with extraordinary sequence specificity”", "binders": {"B1": {"name": "GCAGGAG (DNA:RNA)", "RNA": "GGGAGACCGGAAUUCAGAUUGUCCGCAGGAGUUAAAUCCCGUCGUAGCCACCA", "DNA 1": "CAATCTGAATTCCGGTCTCCC", "DNA 2": "TGGTGGCTACGACGGGATT"}, "B2": {"name": "AAGGUAG (DNA:RNA)", "RNA": "B1 RNA with G25A, C26A, A27G, G29U", "DNA 1": "CAATCTGAATTCCGGTCTCCC", "DNA 2": "TGGTGGCTACGACGGGATT"}, "B3": {"name": "AUCGACU (DNA:RNA)", "RNA": "B1 RNA with G25A, C26U, A27C, G29A, A30C, G31U", "DNA 1": "CAATCTGAATTCCGGTCTCCC", "DNA 2": "TGGTGGCTACGACGGGATT"}, "B4": {"name": "UGGGUUC (DNA:RNA)", "RNA": "B1 RNA with G25U, C26G, A27G, G29U, A30U, G31C", "DNA 1": "CAATCTGAATTCCGGTCTCCC", "DNA 2": "TGGTGGCTACGACGGGATT"}, "B5": {"name": "AAGAUUC (DNA:RNA)", "RNA": "GGGAGACCGGAAUUCAGAUUGUCCAAGAUUCUUAAAUCCCGUCGUAGCCACCA", "DNA 1": "CAATCTGAATTCCGGTCTCCC", "DNA 2": "TGGTGGCTACGACGGGATT"}, "B6": {"name": "ACUGAAC (DNA:RNA)", "RNA": "B1 RNA with G25A, A27U, G29A, G31C", "DNA 1": "CAATCTGAATTCCGGTCTCCC", "DNA 2": "TGGTGGCTACGACGGGATT"}, "B7": {"name": "UUAGUAC (DNA:RNA)", "RNA": "B1 RNA with G25U, C26U, G29U, G31C", "DNA 1": "CAATCTGAATTCCGGTCTCCC", "DNA 2": "TGGTGGCTACGACGGGATT"}, "B8": {"name": "AUUCAGU (DNA:RNA)", "RNA": "B5 RNA with A26U, G27U, A28C, U29A, U30G, C31U", "DNA 1": "CAATCTGAATTCCGGTCTCCC", "DNA 2": "TGGTGGCTACGACGGGATT"}, "B9": {"name": "AUGUGGU (DNA:RNA)", "RNA": "B5 RNA with A26U, A28U, U29G, U30G, C31U", "DNA 1": "CAATCTGAATTCCGGTCTCCC", "DNA 2": "TGGTGGCTACGACGGGATT"}, "B10": {"name": "UCAUCUA (DNA:RNA)", "RNA": "B1 RNA with G25U, G28U, G29C, A30U, G31A", "DNA 1": "CAATCTGAATTCCGGTCTCCC", "DNA 2": "TGGTGGCTACGACGGGATT"}, "B11": {"name": "CCAAACU (DNA:RNA)", "RNA": "B1 RNA with G25C, G28A, G29A, A30C, G31U", "DNA 1": "CAATCTGAATTCCGGTCTCCC", "DNA 2": "TGGTGGCTACGACGGGATT"}, "B12": {"name": "GCUACCC (DNA:RNA)", "RNA": "B5 RNA with A25G, A26C, G27U, U29C, U30C", "DNA 1": "CAATCTGAATTCCGGTCTCCC", "DNA 2": "TGGTGGCTACGACGGGATT"}, "B13": {"name": "GUUUGAA (DNA:RNA)", "RNA": "B1 RNA with C26U, A27U, G28U, G31A", "DNA 1": "CAATCTGAATTCCGGTCTCCC", "DNA 2": "TGGTGGCTACGACGGGATT"}, "B14": {"name": "CUUUGGG (DNA:RNA)", "RNA": "B1 RNA with G25C, C26U, A27U, G28U, A30G", "DNA 1": "CAATCTGAATTCCGGTCTCCC", "DNA 2": "TGGTGGCTACGACGGGATT"}, "B15": {"name": "CAACCGC (DNA:RNA)", "RNA": "B5 RNA with A25C, G27A, A28C, U29C, U30G", "DNA 1": "CAATCTGAATTCCGGTCTCCC", "DNA 2": "TGGTGGCTACGACGGGATT"}, "B16": {"name": "UAGGCGU (DNA:RNA)", "RNA": "B5 RNA with A25U, A28G, U29C, U30G, C31U", "DNA 1": "CAATCTGAATTCCGGTCTCCC", "DNA 2": "TGGTGGCTACGACGGGATT"}, "B17": {"name": "UUAUCGU (DNA:RNA)", "RNA": "B1 RNA with G25U, C26U, G28U, G29C, A30G, G31U", "DNA 1": "CAATCTGAATTCCGGTCTCCC", "DNA 2": "TGGTGGCTACGACGGGATT"}, "B18": {"name": "GAUACGU (DNA:RNA)", "RNA": "B5 RNA with A25G, G27U, U29C, U30G, C31U", "DNA 1": "CAATCTGAATTCCGGTCTCCC", "DNA 2": "TGGTGGCTACGACGGGATT"}, "B19": {"name": "ACAGCCU (DNA:RNA)", "RNA": "B1 RNA with G25A, G29C, A30C, G31U", "DNA 1": "CAATCTGAATTCCGGTCTCCC", "DNA 2": "TGGTGGCTACGACGGGATT"}, "B20": {"name": "UUUAAAG (DNA:RNA)", "RNA": "B1 RNA with G25U, C26U, A27U, G28A, G29A", "DNA 1": "CAATCTGAATTCCGGTCTCCC", "DNA 2": "TGGTGGCTACGACGGGATT"}}, "note": "Changes are numbered by the printed parent chain; changes in the protein carry UniProt numbers. Some of the results follow.", "data": [{"molecular_target": "T1, RBFOX1 RRM RbFoxmut (Fox-RRM*) (Homo sapiens, UniProt Q9NWB1 109-208, R118D;E147R;N151S;E152T)", "T1 sequence": "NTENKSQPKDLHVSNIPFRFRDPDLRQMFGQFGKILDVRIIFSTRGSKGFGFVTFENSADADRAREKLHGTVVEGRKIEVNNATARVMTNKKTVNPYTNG", "assay": "EMSA; HiTS-Eq, 1 nM pool, 10 min; buffer printed only for the single-RNA assays: 10 mM Tris pH 7.5, 150 mM NaCl, 3.4 mM EDTA, 0.001% NP-40, 30 C", "details": "tags: His6 N-terminal (pET28a); label: 5' 32P", "summary_of_the_method": "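Purified wild-type or mutant RbFox RRM at increasing concentrations was equilibrated with 1 nM of 5′-radiolabelled RNA carrying 7 randomized nucleotides for 10 min in 50 µL. Unbound RNA was separated by 8% native PAGE and sequenced. Relative association constants came from read-count changes of each RNA species compared with the control reaction, normalised to the cognate motif.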", "values": [{"binder": "B1", "binding signal": "0.0994 KA relative to UGCAUGU"}, {"binder": "B2", "binding signal": "0.144 KA relative to UGCAUGU"}, {"binder": "B3", "binding signal": "0.0688 KA relative to UGCAUGU"}, {"binder": "B4", "binding signal": "0.177 KA relative to UGCAUGU"}, {"binder": "B5", "binding signal": "0.11 KA relative to UGCAUGU"}, {"binder": "B6", "binding signal": "0.0674 KA relative to UGCAUGU"}, {"binder": "B7", "binding signal": "0.102 KA relative to UGCAUGU"}, {"binder": "B8", "binding signal": "0.0935 KA relative to UGCAUGU"}, {"binder": "B9", "binding signal": "0.16 KA relative to UGCAUGU"}, {"binder": "B10", "binding signal": "0.109 KA relative to UGCAUGU"}, {"binder": "B11", "binding signal": "0.0717 KA relative to UGCAUGU"}, {"binder": "B12", "binding signal": "0.0702 KA relative to UGCAUGU"}, {"binder": "B13", "binding signal": "0.184 KA relative to UGCAUGU"}, {"binder": "B14", "binding signal": "0.0641 KA relative to UGCAUGU"}, {"binder": "B15", "binding signal": "0.0715 KA relative to UGCAUGU"}, {"binder": "B16", "binding signal": "0.0882 KA relative to UGCAUGU"}, {"binder": "B17", "binding signal": "0.087 KA relative to UGCAUGU"}, {"binder": "B18", "binding signal": "0.106 KA relative to UGCAUGU"}, {"binder": "B19", "binding signal": "0.0684 KA relative to UGCAUGU"}, {"binder": "B20", "binding signal": "0.108 KA relative to UGCAUGU"}]}]}
